The record followed here is PMC4007767.

The chains behind the UniProt entries cited, without tags or fusion partners.
UniProt A5D8V6: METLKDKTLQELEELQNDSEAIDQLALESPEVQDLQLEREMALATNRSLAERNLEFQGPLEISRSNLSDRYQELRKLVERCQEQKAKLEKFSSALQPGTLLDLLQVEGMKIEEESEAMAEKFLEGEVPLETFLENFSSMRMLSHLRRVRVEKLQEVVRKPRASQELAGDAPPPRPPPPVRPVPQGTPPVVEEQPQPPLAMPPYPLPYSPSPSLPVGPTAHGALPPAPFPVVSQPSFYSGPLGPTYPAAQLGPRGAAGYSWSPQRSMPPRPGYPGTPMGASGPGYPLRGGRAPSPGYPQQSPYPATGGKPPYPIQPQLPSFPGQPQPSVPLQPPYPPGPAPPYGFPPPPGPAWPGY
UniProt Q99816: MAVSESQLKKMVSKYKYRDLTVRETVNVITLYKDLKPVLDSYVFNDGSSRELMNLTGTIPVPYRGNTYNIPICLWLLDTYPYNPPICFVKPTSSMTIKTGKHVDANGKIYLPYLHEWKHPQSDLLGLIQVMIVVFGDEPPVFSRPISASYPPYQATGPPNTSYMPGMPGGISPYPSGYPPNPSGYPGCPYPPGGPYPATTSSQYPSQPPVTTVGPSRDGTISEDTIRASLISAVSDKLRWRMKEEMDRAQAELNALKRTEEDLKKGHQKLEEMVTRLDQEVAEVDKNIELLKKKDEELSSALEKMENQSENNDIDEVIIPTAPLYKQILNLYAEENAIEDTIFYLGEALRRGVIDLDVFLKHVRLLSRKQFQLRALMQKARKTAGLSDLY

These are yes or no findings as the source states them, for the method shown. In cells and extracts the contact can be indirect. Some binding calls cover weakened binding; strength is not graded here. For some of these results: Where a sequence is shown, tags or fusion partners need not be part of it.

The target in experiment [1] is Flag–VPS37C (in vitro translated) (human) (UniProt A5D8V6). In words: co-IP; 35S-labelled ESCRT-I subunits co-translated in rabbit reticulocyte lysate, diluted tenfold in 10 mM Tris-HCl pH 7.4, 150 mM NaCl, 1 mM EDTA, 0.1% Triton X-100; IP of HA–TSG101 with anti-HA agarose overnight; SDS-PAGE and phosphoimaging.
Experiment [2] addresses Flag–VPS37A (in vitro translated, full length) (human) (UniProt Q8NEZ2). The description is as above.
In experiment [3] the target is HA–TSG101 (in vitro translated) (human) (UniProt Q99816). Described as above.
Experiment [4] addresses T1, Flag–VPS37A (in vitro translated, full length) (human), Q8NEZ2.
T1 chain: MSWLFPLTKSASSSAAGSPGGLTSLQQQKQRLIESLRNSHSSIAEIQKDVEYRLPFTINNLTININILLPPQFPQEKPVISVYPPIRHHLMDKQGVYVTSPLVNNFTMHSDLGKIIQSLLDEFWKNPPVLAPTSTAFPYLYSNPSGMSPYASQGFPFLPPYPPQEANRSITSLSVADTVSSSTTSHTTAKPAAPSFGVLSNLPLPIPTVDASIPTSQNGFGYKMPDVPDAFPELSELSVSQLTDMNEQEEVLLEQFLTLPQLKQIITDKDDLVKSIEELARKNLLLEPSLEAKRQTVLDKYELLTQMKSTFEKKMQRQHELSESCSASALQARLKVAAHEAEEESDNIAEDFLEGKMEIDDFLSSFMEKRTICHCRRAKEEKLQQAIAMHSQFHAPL
In words: co-IP; as a7, but no HA–TSG101 in the translation mix (Fig. 5A lane 13); the antibody used is not given. The note with it: remark: other sources report otherwise.

B1: UBAP1(UMA) (amino acids 1–63, in vitro translated) (domain or fragment, UniProt Q9NZ09 1-63)
chain: MASKKLGADFHGTFSYLDDVPFKTGDKFKTPAKVGLPIGFSLPDCLQVVREVQYDFSLEKKTI
modifications: 35S-methionine label
Take B1: the binding entry in experiment [1] is given as “binds”.

B2: UBAP1 predicted helix region alone (in vitro translated) (domain or fragment, UniProt Q9NZ09 44-95)
chain: DCLQVVREVQYDFSLEKKTIEWAEEIKKIEEAEREAECKIAEAEAKVNSKSG
modifications: 35S-methionine label
Turning to B2, the binding entry in experiment [2] and in experiment [3] was “no binding” each time.

B3: VPS28–Myc (in vitro translated), Q9UK41 1-221 (protein)
chain: MFHGIPATPGIGAPGNKPELYEEVKLYKNAREREKYDNMAELFAVVKTMQALEKAYIKDCVSPSEYTAACSRLLVQYKAAFRQVQGSEISSIDEFCRKFRLDCPLAMERIKEDRPITIKDDKGNLNRCIADVVSLFITVMDKLRLEIRAMDEIQPDLRELMETMHRMSHLPPDFEGRQTVSQWLQTLSGMSASDELDDSQVRQMLFDLESAYNAFNRFLHA
modifications: here or on the partner: 35S-methionine label; 35S-methionine label
For B3, the binding result in experiment [4] is reported as “no binding”.
